Some of the results follow.
Legend:
Assay in all cases: glycan array binding signal (z-score within array); higher = stronger binding
Settings in all cases: glycan notation: IUPAC condensed, linker removed
[1] = molecular target: Neu5Ac(a2-3)Gal(b1-4)GlcNAc(b1-2)Man(a1-3)[Neu5Ac(a2-3)Gal(b1-4)GlcNAc(b1-2)Man(a1-6)]Man(b1-4)GlcNAc(b1-4)[Fuc(a1-6)]GlcNAc
Outline: (§1)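 Glycan array data came from 3228 arrays in the Consortium for Functional Glycomics database, and only arrays with an available protein sequence were kept. Glycan names were put into IUPAC-condensed notation, and columns mapping to the same glycan were averaged. The binding signal is a within-array Z-score, averaged across arrays of one protein sequence run at different concentrations or buffers and across linkers. A negative Z-score can be read as non-binding.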

[2] = molecular target: Neu5Ac(a2-3)Gal(b1-4)GlcNAc(b1-3)Gal(b1-4)Glc
Outline: as §1

[3] = molecular target: Neu5Ac(a2-3)Gal(b1-4)GlcNAc6S(b1-3)Gal6S(b1-3)GlcNAc6S
Outline: as §1

[4] = molecular target: Neu5Ac(a2-3)Gal(b1-4)[Fuc(a1-3)]GlcNAc
Outline: as §1

[5] = molecular target: Neu5Ac(a2-3)Gal(b1-4)[Fuc(a1-3)]GlcNAc(b1-3)Gal
Outline: as §1

[6] = molecular target: Neu5Ac(a2-3)Gal(b1-4)[Fuc(a1-3)]GlcNAc(b1-3)Gal(b1-4)Glc
Outline: as §1

[7] = molecular target: Neu5Ac(a2-3)Gal(b1-4)[Fuc(a1-3)]GlcNAc(b1-3)Gal(b1-4)[Fuc(a1-3)]GlcNAc(b1-3)Gal(b1-4)Glc
Outline: as §1

[8] = molecular target: Neu5Ac(a2-3)Gal(b1-4)[Fuc(a1-3)]GlcNAc6S(b1-3)Gal(b1-4)Glc
Outline: as §1

[9] = molecular target: Neu5Ac(a2-3)Gal6S(b1-4)[Fuc(a1-3)]GlcNAc(b1-3)Gal(b1-4)Glc
Outline: as §1

[10] = molecular target: Neu5Ac(a2-3)Gal6S(b1-4)[Fuc(a1-3)]GlcNAc6S(b1-3)Gal(b1-4)Glc
Outline: as §1

[11] = molecular target: Neu5Ac(a2-3)[GalNAc(b1-4)]Gal(b1-3)GalNAc(b1-4)[Neu5Ac(a2-3)]Gal(b1-4)Glc
Outline: as §1

[12] = molecular target: Neu5Ac(a2-3)[GalNAc(b1-4)]Gal(b1-4)Glc
Outline: as §1

[13] = molecular target: Neu5Ac(a2-6)Gal(b1-3)GlcNAc(b1-3)[Fuc(a1-3)[Gal(b1-4)]GlcNAc(b1-6)]Gal(b1-4)Glc
Outline: as §1

[14] = molecular target: Neu5Ac(a2-6)Gal(b1-3)GlcNAc(b1-3)[Gal(b1-4)GlcNAc(b1-6)]Gal(b1-4)Glc
Outline: as §1

Neu5Ac(a2-6)Gal(b1-4)Glc = molecular target: Neu5Ac(a2-6)Gal(b1-4)Glc
Outline: as §1

[15] = molecular target: Neu5Ac(a2-6)Gal(b1-4)GlcNAc
Outline: as §1

[16] = molecular target: Neu5Ac(a2-6)Gal(b1-4)GlcNAc(b1-2)Man(a1-3)[Neu5Ac(a2-6)Gal(b1-4)GlcNAc(b1-2)Man(a1-6)]Man(b1-4)GlcNAc(b1-4)GlcNAc
Outline: as §1

[17] = molecular target: Neu5Ac(a2-6)Gal(b1-4)GlcNAc(b1-2)[Neu5Ac(a2-3)Gal(b1-4)GlcNAc(b1-4)]Man(a1-3)[Neu5Ac(a2-3)Gal(b1-4)GlcNAc(b1-2)Man(a1-6)]Man(b1-4)GlcNAc(b1-4)GlcNAc
Outline: as §1

[18] = molecular target: Neu5Ac(a2-6)Gal(b1-4)GlcNAc(b1-3)Gal(b1-4)Glc
Outline: as §1

[19] = molecular target: Neu5Ac(a2-6)Gal(b1-4)GlcNAc(b1-3)Gal(b1-4)[Fuc(a1-3)]Glc
Outline: as §1

[20] = molecular target: Neu5Ac(a2-6)Gal(b1-4)GlcNAc(b1-3)[Neu5Ac(a2-6)Gal(b1-4)GlcNAc(b1-6)]Gal(b1-4)Glc
Outline: as §1

[21] = molecular target: Neu5Ac(a2-6)Gal(b1-4)GlcNAc(b1-6)[Gal(b1-3)GlcNAc(b1-3)]Gal(b1-4)Glc
Outline: as §1

[22] = molecular target: Neu5Ac(a2-6)Gal(b1-4)[Fuc(a1-3)]GlcNAc(b1-3)Gal(b1-4)Glc
Outline: as §1

Neu5Ac(a2-8)Neu5Ac = molecular target: Neu5Ac(a2-8)Neu5Ac
Outline: as §1

[23] = molecular target: Neu5Ac(a2-8)Neu5Ac(a2-3)Gal(b1-3)GalNAc(b1-4)[Neu5Ac(a2-3)]Gal(b1-4)Glc
Outline: as §1

[24] = molecular target: Neu5Ac(a2-8)Neu5Ac(a2-3)Gal(b1-3)GalNAc(b1-4)[Neu5Ac(a2-8)Neu5Ac(a2-3)]Gal(b1-4)Glc
Outline: as §1

[25] = molecular target: Neu5Ac(a2-8)Neu5Ac(a2-3)Gal(b1-4)Glc
Outline: as §1

[26] = molecular target: Neu5Ac(a2-8)Neu5Ac(a2-3)[Gal(b1-3)GalNAc(b1-4)]Gal(b1-4)Glc
Outline: as §1

[27] = molecular target: Neu5Ac(a2-8)Neu5Ac(a2-3)[GalNAc(b1-4)]Gal(b1-4)Glc
Outline: as §1

[28] = molecular target: Neu5Ac(a2-8)Neu5Ac(a2-8)Neu5Ac
Outline: as §1

[29] = molecular target: Neu5Ac(a2-8)Neu5Ac(a2-8)Neu5Ac(a2-8)Neu5Ac
Outline: as §1

[30] = molecular target: Neu5Ac(a2-8)Neu5Ac(a2-8)Neu5Ac(a2-8)Neu5Ac(a2-8)Neu5Ac
Outline: as §1

[31] = molecular target: Neu5Ac(a2-8)Neu5Ac(a2-8)Neu5Ac(a2-8)Neu5Ac(a2-8)Neu5Ac(a2-8)Neu5Ac
Outline: as §1

[32] = molecular target: Neu5Ac(a2-8)Neu5Ac(a2-8)Neu5Ac(a2-8)Neu5Ac(a2-8)Neu5Ac(a2-8)Neu5Ac(a2-8)Neu5Ac
Outline: as §1

[33] = molecular target: Neu5Ac(a2-8)Neu5Ac(a2-8)Neu5Ac(a2-8)Neu5Ac(a2-8)Neu5Ac(a2-8)Neu5Ac(a2-8)Neu5Ac(a2-8)Neu5Ac
Outline: as §1

[34] = molecular target: Neu5Ac(a2-8)Neu5Ac(a2-8)Neu5Ac(a2-8)Neu5Ac(a2-8)Neu5Ac(a2-8)Neu5Ac(a2-8)Neu5Ac(a2-8)Neu5Ac(a2-8)Neu5Ac
Outline: as §1

[35] = molecular target: Neu5Ac(a2-8)Neu5Ac(a2-8)Neu5Ac(a2-8)Neu5Ac(a2-8)Neu5Ac(a2-8)Neu5Ac(a2-8)Neu5Ac(a2-8)Neu5Ac(a2-8)Neu5Ac(a2-8)Neu5Ac
Outline: as §1

[36] = molecular target: Neu5Ac(a2-8)Neu5Ac(a2-8)Neu5Ac(a2-8)Neu5Ac(a2-8)Neu5Ac(a2-8)Neu5Ac(a2-8)Neu5Ac(a2-8)Neu5Ac(a2-8)Neu5Ac(a2-8)Neu5Ac(a2-8)Neu5Ac
Outline: as §1

[37] = molecular target: Neu5Ac(a2-9)Neu5Ac(a2-3)Gal(b1-4)Glc
Outline: as §1

Neu5Ac(b2-3)Gal(b1-4)Glc = molecular target: Neu5Ac(b2-3)Gal(b1-4)Glc
Outline: as §1

Neu5Ac(b2-6)Gal(b1-4)Glc = molecular target: Neu5Ac(b2-6)Gal(b1-4)Glc
Outline: as §1

[38] = molecular target: Neu5Ac9Ac(a2-6)Gal(b1-4)GlcNAc
Outline: as §1

Neu5Gc(a2-3)Gal(b1-4)Glc = molecular target: Neu5Gc(a2-3)Gal(b1-4)Glc
Outline: as §1

Measured: glycan array binding signal (z-score)

B1: MIC13 (Toxoplasma gondii), A0A125YWL1 (protein)
chain: IQLRQHRNGLGVEQSFVSEETDIVGGRISSLQAELDSYCHNRYKQLCDGGNKKFCDKTGVARYGTGIQSQQTAEWRCYFAEVLKPSGRKVQCVDDCGNYFPCLGVVDPNDTFHATAHNQILNFIKDGVEKHCSPFQMAGNNYCQGVLADTVARKDTGTASQKAKAWRCYKKDSLTYEARSICVDNCGGEIECPGGRSETSGELLSQHYTREKELQKVIESQSAPCHDACVATPINPPICADTESLLQSTKRSRAQRFIDDACQKLFNCHCKKDKKFCTTVVARKDRGRAGSQNDAEWRCYSLEELDFQKTNPSCIDECGNELPCQGAVPEESTHHITWTKLPSKIDEATQKFCTERQRAANDYCASEFADSLARYGPGAGDQTSQFRCIKKAAMRADAEGQCADSCKGTETCGGGRSRLDGPLSVDDVLNAHEGISEAMKSASTEC
-0.282: [17]
1.08: [3]
8.12: [37]
2.31: [10]
0.174: [4]
-0.045: [12]
-0.287: [2] | [5] | [6] | [11] | [13] | [14] | Neu5Ac(a2-6)Gal(b1-4)Glc | [16] | [18] | [19] | [20] | [21] | [22] | Neu5Ac(a2-8)Neu5Ac | [23] | [24] | [25] | [26] | [27] | [28] | [29] | [31] | [32] | [33] | [34] | [35] | [36] | Neu5Ac(b2-3)Gal(b1-4)Glc | Neu5Ac(b2-6)Gal(b1-4)Glc | [38]
-0.038: Neu5Gc(a2-3)Gal(b1-4)Glc
-0.196: [1]
0.435: [8]
-0.275: [15]
-0.221: [30]
-0.284: [7]
0.583: [9]

From the supplement of paper PMC8728848
